Reference: PubChem BioAssay AID324 (DTP/NCI, 2004)
Toxic doses and inconclusive results are not listed. Certain results were filed several times, with different values. This is not the full list of results. There may be further records. The records of an entry differ for a reason that is not stated; some may be repeats, others may stem from another dose, organism or construct than stated.

Tested on: CD2F1 mice, AMSA-resistant P388 leukemia ip, median survival T/C
Experiment: NCI In Vivo Anticancer Drug Screen. Data for tumor model P388 Leukemia resistant to AMSA; NSC 249992 (intraperitoneal) in CD2F1 (CDF1) mice
Details: endpoint: median survival time; dose: 2.16 mg/kg/injection; schedule: Q04DX003 (ip); vehicle: saline; higher = longer survival
Procedure: The antitumor activity of compounds was measured in mice bearing transplantable tumors. Survival or tumor size were measured and the results are expressed as the measurement made in the treated group (T) divided by the measurement made in the vehicle treated control group (C). The tumor model used in this assay is P388 Leukemia resistant to AMSA; NSC 249992 (intraperitoneal) in CD2F1 (CDF1) mice

With `O=C1c2c(O)ccc(O)c2C(=O)c2c(NCCNCCO)ccc(NCCNCCO)c21` the T/C was 124 % of control and 151 % of control.
